Laboratory results reported in patent publication US20230340054A1 (published 2023).

T1: human IL-2Rβ (CD122), recombinant, biotinylated (human, UniProt P14784 27-239, limits assumed, biotinylated (site not stated))
T1 sequence (looked up): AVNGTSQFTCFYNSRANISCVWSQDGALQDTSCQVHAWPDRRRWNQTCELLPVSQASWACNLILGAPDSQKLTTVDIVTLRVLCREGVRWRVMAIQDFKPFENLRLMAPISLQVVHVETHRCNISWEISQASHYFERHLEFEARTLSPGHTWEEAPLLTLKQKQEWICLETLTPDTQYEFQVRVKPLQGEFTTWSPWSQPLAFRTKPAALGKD

T2: human IL-2Rα (CD25), recombinant, biotinylated (human, UniProt P01589 22-213, limits assumed, biotinylated (site not stated))
T2 construct: also called human CD25 (IL-2Rα) receptor
T2 sequence (looked up): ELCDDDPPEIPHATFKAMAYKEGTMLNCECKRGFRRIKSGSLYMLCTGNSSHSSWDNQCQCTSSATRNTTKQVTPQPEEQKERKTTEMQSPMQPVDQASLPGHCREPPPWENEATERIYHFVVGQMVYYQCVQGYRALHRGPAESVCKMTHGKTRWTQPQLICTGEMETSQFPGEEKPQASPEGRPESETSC


Target: T1, human IL-2Rβ (CD122), recombinant, …
Assay: BLI

Row | Binder | Kd [nM] | koff [s⁻¹] | kon [M⁻¹ s⁻¹]
1 | IgG fusion IL-2 mutein P65K (other) not shown | 12500 | 1.62 | 129000
2 | IgG fusion IL-2 mutein L12I (other) not shown | 307 | 0.109 | 356000
3 | IgG fusion IL-2 mutein E15T (other) not shown | 220 | 0.154 | 699000
4 | IgG fusion IL-2 mutein L72F (other) not shown | 357 | 0.502 | 1.4e+06

Results, then the binder that gave them:

Row | Kd [nM] | koff [s⁻¹] | kon [M⁻¹ s⁻¹] | Binder
5 | 232 | 0.559 | 2.41e+06 | IgG fusion IL-2 mutein L19I (other) not shown
6 | 228 | 0.276 | 1.21e+06 | IgG fusion IL-2 mutein F42M (other) not shown

Target: T2, human IL-2Rα (CD25), recombinant, …
Assay: BLI

Row | Binder | Kd [nM] | koff [s⁻¹] | kon [M⁻¹ s⁻¹]
7 | IgG fusion IL-2 mutein P34F (other) not shown | 40.1 | 0.0193 | 481000
8 | IgG fusion IL-2 mutein N88S (other) not shown | 25.4 | 0.0211 | 829000
9 | IgG fusion IL-2 mutein P65R (other) not shown | 52.6 | 0.0229 | 434000
10 | IgG fusion IL-2 mutein E95D (other) not shown | 22.8 | 0.0186 | 818000
11 | IgG fusion IL-2 mutein P65K (other) not shown | 9.08 | 0.00127 | 140000
12 | IgG fusion IL-2 mutein L12I (other) not shown | 22.7 | 0.0215 | 944000
13 | IgG fusion IL-2 mutein E106W (other) not shown | 139 | 0.00116 | 8330
14 | IgG fusion IL-2 mutein E95N (other) not shown | 0.0073 | 4.88e-07 | 66900
15 | IgG fusion IL-2 mutein H16K (other) not shown | 32.8 | 0.000428 | 13100
16 | IgG fusion IL-2 mutein E15T (other) not shown | 10 | 0.0171 | 1.71e+06
17 | IgG fusion IL-2 mutein N71W (other) not shown | 71.9 | 0.0108 | 150000
18 | IgG fusion IL-2 mutein S87E (other) not shown | 771 | 0.00701 | 9090
19 | IgG fusion IL-2 mutein P34W (other) not shown | 73.8 | 0.028 | 380000
20 | IgG fusion IL-2 mutein M104H (other) not shown | 453 | 0.00143 | 3150
21 | IgG fusion IL-2 mutein E95T (other) not shown | 12.5 | 0.0102 | 814000
22 | IgG fusion IL-2 mutein L19F (other) not shown | 16.4 | 0.0137 | 833000

Row | Binder | Kd [nM] | koff [s⁻¹] | kon [M⁻¹ s⁻¹]
23 | IgG fusion IL-2 mutein I92F (other) not shown | 35.9 | 0.0168 | 467000
24 | IgG fusion IL-2 mutein T111W (other) not shown | 40.7 | 0.0104 | 255000
25 | IgG fusion IL-2 mutein E15D (other) not shown | 148 | 0.0012 | 8120
26 | IgG fusion IL-2 mutein D109K (other) not shown | 136 | 0.0423 | 311000
27 | IgG fusion IL-2 mutein E95S (other) not shown | 12.5 | 0.012 | 959000
28 | IgG fusion IL-2 mutein E15S (other) not shown | 24 | 0.0158 | 661000
29 | IgG fusion IL-2 mutein I92V (other) not shown | < 0.001 | < 1e-07 | 48300
30 | IgG fusion IL-2 mutein D109H (other) not shown | 25.8 | 0.000612 | 23800
31 | IgG fusion IL-2 mutein P65Q (other) not shown | 16.4 | 0.000747 | 45600
32 | IgG fusion IL-2 mutein L12V (other) not shown | 21.4 | 0.0156 | 730000
33 | IgG fusion IL-2 mutein L19V (other) not shown | 25.4 | 0.0217 | 855000
34 | IgG fusion IL-2 mutein T111N (other) not shown | 921 | 0.0652 | 70800
35 | IgG fusion IL-2 mutein L72R (other) not shown | 13.1 | 0.00211 | 161000
36 | IgG fusion IL-2 mutein L72F (other) not shown | 33.2 | 0.0166 | 499000
37 | IgG fusion IL-2 mutein K48V (other) not shown | 118 | 0.00278 | 23700

More lines, in order of falling Kd, values ahead:

Row | Kd [nM] | koff [s⁻¹] | kon [M⁻¹ s⁻¹] | Binder
38 | 4350 | 0.0112 | 2570 | IgG fusion IL-2 mutein E61W (other) not shown
39 | 98.3 | 0.00188 | 19100 | IgG fusion IL-2 mutein D109W (other) not shown
40 | 63 | 0.00842 | 134000 | IgG fusion IL-2 mutein D109M (other) not shown
41 | 55 | 0.0269 | 489000 | IgG fusion IL-2 mutein H16Y (other) not shown
42 | 51.2 | 0.0326 | 636000 | IgG fusion IL-2 mutein E68F (other) not shown
43 | 43.2 | 0.0191 | 443000 | IgG fusion IL-2 mutein D109R (other) not shown
44 | 39.9 | 0.0185 | 464000 | IgG fusion IL-2 mutein H16R (other) not shown
45 | 36.8 | 0.0208 | 565000 | IgG fusion IL-2 mutein P65E (other) not shown
46 | 34.1 | 0.0226 | 664000 | IgG fusion IL-2 mutein L19I (other) not shown
47 | 30.4 | 0.00277 | 91100 | IgG fusion IL-2 mutein P34Y (other) not shown
48 | 30.3 | 0.0097 | 320000 | IgG fusion IL-2 mutein E68W (other) not shown
49 | 29.6 | 0.0172 | 580000 | IgG fusion IL-2 mutein T111H (other) not shown
50 | 26.3 | 0.0219 | 834000 | IgG fusion IL-2 mutein F42M (other) not shown
51 | 25.8 | 0.00773 | 300000 | IgG fusion IL-2 mutein E68Q (other) not shown
52 | 24.7 | 0.0148 | 597000 | IgG fusion IL-2 mutein S87T (other) not shown
53 | 21.3 | 0.0224 | 1.05e+06 | IgG fusion IL-2 mutein L12Y (other) not shown
54 | 19.6 | 0.0154 | 786000 | IgG fusion IL-2 mutein M23I (other) not shown
55 | 16.3 | 0.0132 | 805000 | IgG fusion IL-2 mutein D20N (other) not shown
56 | 15.8 | 0.0106 | 671000 | IgG fusion IL-2 mutein D84T (other) not shown
57 | 13.4 | 0.0131 | 976000 | IgG fusion IL-2 mutein E95Q (other) not shown
58 | 11.6 | 0.0131 | 1.13e+06 | IgG fusion IL-2 mutein D84S (other) not shown
59 | 8.96 | 0.00741 | 827000 | IgG fusion IL-2 mutein I92W (other) not shown
60 | 5.16 | 0.00127 | 246000 | IgG fusion IL-2 mutein D20T (other) not shown
61 | 0.0762 | 3.2e-07 | 4190 | IgG fusion IL-2 mutein M104I (other) not shown
